From article PMC4336329 (PLoS ONE, 2015)
Out of some 310,000 compounds screened, about 2,200 (0.71%) showed an effect of 50% or more. Effects have a minus sign here. The list shows a part of the results.

Target: human ether-à-go-go-related gene (hERG) potassium channel (human, UniProt Q12809)
Assay: primary screen, population patch clamp on CHO cells stably expressing hERG

Sequence of human ether-à-go-go-related gene (hERG) potassium channel (Q12809 whole entry, looked up): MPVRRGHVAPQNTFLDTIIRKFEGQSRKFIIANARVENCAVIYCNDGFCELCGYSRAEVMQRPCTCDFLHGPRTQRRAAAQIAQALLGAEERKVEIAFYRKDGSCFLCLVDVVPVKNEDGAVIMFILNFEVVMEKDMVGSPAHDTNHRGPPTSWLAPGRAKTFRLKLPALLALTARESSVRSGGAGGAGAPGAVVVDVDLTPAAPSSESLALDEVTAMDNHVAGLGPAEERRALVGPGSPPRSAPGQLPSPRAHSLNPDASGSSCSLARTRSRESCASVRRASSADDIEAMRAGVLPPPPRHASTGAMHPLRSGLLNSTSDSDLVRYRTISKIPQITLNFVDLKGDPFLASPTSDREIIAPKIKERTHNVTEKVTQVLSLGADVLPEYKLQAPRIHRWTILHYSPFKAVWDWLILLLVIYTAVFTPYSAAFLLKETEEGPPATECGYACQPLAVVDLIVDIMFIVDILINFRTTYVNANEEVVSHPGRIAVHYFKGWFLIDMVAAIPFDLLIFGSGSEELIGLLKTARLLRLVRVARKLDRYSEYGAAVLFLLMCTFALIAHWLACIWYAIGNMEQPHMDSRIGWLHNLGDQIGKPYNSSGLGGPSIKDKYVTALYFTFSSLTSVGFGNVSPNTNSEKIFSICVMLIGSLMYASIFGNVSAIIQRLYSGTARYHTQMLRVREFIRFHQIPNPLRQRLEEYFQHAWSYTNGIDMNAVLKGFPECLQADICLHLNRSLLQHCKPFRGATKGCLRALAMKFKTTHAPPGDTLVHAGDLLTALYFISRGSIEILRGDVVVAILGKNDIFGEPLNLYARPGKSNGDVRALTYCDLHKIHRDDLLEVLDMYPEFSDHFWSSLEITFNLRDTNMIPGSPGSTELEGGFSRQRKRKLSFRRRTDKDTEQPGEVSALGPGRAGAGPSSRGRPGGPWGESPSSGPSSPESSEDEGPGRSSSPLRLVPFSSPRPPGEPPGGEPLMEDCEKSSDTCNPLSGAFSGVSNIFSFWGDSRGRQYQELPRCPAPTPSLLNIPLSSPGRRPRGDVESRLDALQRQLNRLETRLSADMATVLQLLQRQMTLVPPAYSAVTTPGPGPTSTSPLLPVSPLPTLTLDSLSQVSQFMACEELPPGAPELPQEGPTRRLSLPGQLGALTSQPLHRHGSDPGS

Row | Compound | hERG current change (%, negative = inhibition) at 1uM [%]
1 | COc1ccc(C(=O)Nc2nc(CC(=O)NCc3ccc(F)cc3)cs2)cc1 | -4.82
2 | Cc1ccc2oc(=O)c3cnn(CC(=O)N4CCN(c5ccccc5)CC4)c3c2c1 | 6.42
3 | O=C(/C=C/c1ccc2ccccc2n1)N1CCN(c2ccccc2)CC1 | -26.3
4 | CCOC(=O)CN(Cc1ccc(OC)c(OC)c1)S(=O)(=O)c1ccc(OC)cc1 | 3.25
5 | O=C(NC(c1ccccc1)c1c(O)ccc2ccccc12)c1ccccc1Cl (stereo not drawn) | 11.3
6 | O=C(N/N=C\C=C\c1ccc2c(c1)OCO2)c1cccnc1 | -7.88
7 | COc1cccc2cc(C(=O)NCc3ccccc3Br)c(=O)oc12 | 19.6
8 | C=CCNC(=S)NNC(=O)c1ccc(OCC(C)C)cc1 | -9.6
9 | CCOc1ccccc1NC(=O)CCNS(=O)(=O)c1ccc2[nH]c(=O)oc2c1 | 11.6
10 | CCOc1cc(/C=N\NC(=O)c2c(C)nc3ccccn23)ccc1O | 14.9
11 | COc1ccc2c(c1)C1NC(=S)NC(C)(O2)C1C(=O)Nc1ccc(Cl)cc1 (stereo not drawn) | 1.68
12 | O=C(NCCCc1ccccc1)c1cnc2n(c1=O)CCS2 | 11
13 | COc1ccc(-c2nnn(CC(=O)N(CCCO)C(C(=O)NC3CCCC3)c3ccc(F)cc3)n2)cc1 (stereo not drawn) | 9.11
14 | COC(=O)Cn1nnc(-c2cccc(OC)c2)n1 | -0.284
15 | Cc1ccc(NC(=O)n2ncc3c(C)cccc32)c(C)c1 | 13.6
16 | COc1cccc(CN(C(=O)COc2ccc(C)cc2)C2CCS(=O)(=O)C2)c1 (stereo not drawn) | 6.26
17 | CC1Nc2ncnc(N3CCOCC3)c2N(Cc2ccccc2)C1=O.O=C(O)C(F)(F)F (stereo not drawn) | 13
18 | O=C(NCCCCC(NC(=O)c1ccc([N+](=O)[O-])cc1)C(=O)O)c1ccc([N+](=O)[O-])cc1 (stereo not drawn) | -6.29
19 | COC(=O)[C@H](Cc1ccccc1)NC(=O)N1CCN(c2ccccc2)CC1 | 3.46
20 | CCOC(=O)c1ccc(NC(=S)NN2CCOCC2)cc1 | 0.0656
21 | CCOc1ccc(C(=O)N(Cc2ccc(N(C)C)cc2)C2CCS(=O)(=O)C2)cc1 (stereo not drawn) | 0.167
22 | CC1CN(C(=O)c2cc([N+](=O)[O-])cc([N+](=O)[O-])c2)CC(C)O1 (stereo not drawn) | 15.1
23 | CNc1ccccc1-n1ccc(-c2ccccc2)n1 | 7.79
24 | Cc1c(C(=O)/C=C/c2cccs2)oc2ccc(F)cc12 | 16.7
